This test deals with Env-mediated cell-cell fusion, plate reader. Briefly: inhibition of Env-driven cell fusion – HIV entry, plate reader, dry powder, dose response (AID 687023).

A number of entries come with more than one value. The other results are left out here. The source may hold further records. The records of an entry are repeats across runs, samples, wells, individuals or studies. Records carry a tag for their origin. A, B and so on number the origins entry by entry.

On to `COc1ccccc1CCNCc1ccc(OC)c(OCc2ccccc2)c1`, for which the AC50 was 284 nM [sample A] and 3.08 µM [sample B]. For the compound `CCOc1ccc(S(=O)(=O)NCc2ccncc2)cc1`, the AC50 is 1.68 µM [sample A] and 27.5 nM [sample B].

The AC50 is the midpoint of the concentration-response curve, whichever way the signal moves. Low values mean greater potency, high ones weaker potency.

The values above are taken from PubChem BioAssay AID687023 (Broad Institute, 2013).
